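Values below derive from 48-hour exposures of cells grown in 96-well plates, with endpoints linearly interpolated between the two concentrations bracketing the appropriate inhibition level. Definition used: TGI = concentration required for complete inhibition of growth.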
Experiments:
Assay in all cases: NCI anticancer screen, dose series, 48 h
CAKI-1 renal = tested on: CAKI-1 renal
SK-MEL-28 melanoma = tested on: SK-MEL-28 melanoma
SK-OV-3 ovarian = tested on: SK-OV-3 ovarian
MALME-3M melanoma = tested on: MALME-3M melanoma
T-47D breast = tested on: T-47D breast
SK-MEL-5 melanoma = tested on: SK-MEL-5 melanoma
CCRF-CEM leukemia = tested on: CCRF-CEM leukemia
SF-268 CNS = tested on: SF-268 CNS
HOP-92 NSCLC = tested on: HOP-92 NSCLC
TK-10 renal = tested on: TK-10 renal
EKVX NSCLC = tested on: EKVX NSCLC
HCT-116 colon = tested on: HCT-116 colon
UO-31 renal = tested on: UO-31 renal
OVCAR-4 ovarian = tested on: OVCAR-4 ovarian
HCT-15 colon = tested on: HCT-15 colon
RPMI-8226 leukemia = tested on: RPMI-8226 leukemia
ACHN renal = tested on: ACHN renal
NCI-H23 lung = tested on: NCI-H23 lung
COLO 205 colon = tested on: COLO 205 colon
A498 renal = tested on: A498 renal
LOX IMVI melanoma = tested on: LOX IMVI melanoma
OVCAR-8 ovarian = tested on: OVCAR-8 ovarian
PC-3 prostate = tested on: PC-3 prostate
BT-549 breast = tested on: BT-549 breast
KM12 colon = tested on: KM12 colon
SF-539 CNS = tested on: SF-539 CNS
NCI-H460 lung = tested on: NCI-H460 lung
MOLT-4 leukemia = tested on: MOLT-4 leukemia
HS 578T breast = tested on: HS 578T breast
SN12C renal = tested on: SN12C renal
HCC-2998 colon = tested on: HCC-2998 colon
HL-60(TB) leukemia = tested on: HL-60(TB) leukemia
SW-620 colon = tested on: SW-620 colon
OVCAR-5 ovarian = tested on: OVCAR-5 ovarian
HT29 colon = tested on: HT29 colon
DU-145 prostate = tested on: DU-145 prostate
A549 NSCLC = tested on: A549 NSCLC
M14 melanoma = tested on: M14 melanoma
SNB-19 CNS = tested on: SNB-19 CNS
NCI/ADR-RES ovarian = tested on: NCI/ADR-RES ovarian
SNB-75 CNS = tested on: SNB-75 CNS
IGROV1 ovarian = tested on: IGROV1 ovarian
NCI-H522 lung = tested on: NCI-H522 lung
MCF7 breast = tested on: MCF7 breast
786-0 renal = tested on: 786-0 renal
U251 CNS = tested on: U251 CNS
NCI-H226 lung = tested on: NCI-H226 lung
UACC-257 melanoma = tested on: UACC-257 melanoma
SK-MEL-2 melanoma = tested on: SK-MEL-2 melanoma
SR leukemia = tested on: SR leukemia
SF-295 CNS = tested on: SF-295 CNS
HOP-62 NSCLC = tested on: HOP-62 NSCLC
MDA-MB-435 = tested on: MDA-MB-435
RXF 393 renal = tested on: RXF 393 renal
OVCAR-3 ovarian = tested on: OVCAR-3 ovarian
MDA-MB-231 breast = tested on: MDA-MB-231 breast
K-562 leukemia = tested on: K-562 leukemia
UACC-62 melanoma = tested on: UACC-62 melanoma
MDA-N = tested on: MDA-N

SMILES: COc1cccc2c1NC(=O)Cc1c-2[nH]c2ccc(Br)cc12
- TGI (CAKI-1 renal): 57.2 µM
- TGI (SK-MEL-28 melanoma): > 100 µM
- TGI (SK-OV-3 ovarian): 87.5 µM
- TGI (MALME-3M melanoma): > 100 µM
- TGI (T-47D breast): > 100 µM
- TGI (SK-MEL-5 melanoma): > 100 µM
- TGI (CCRF-CEM leukemia): > 100 µM
- TGI (SF-268 CNS): > 100 µM
- TGI (HOP-92 NSCLC): > 100 µM
- TGI (TK-10 renal): 66.7 µM
- TGI (EKVX NSCLC): 77.4 µM
- TGI (HCT-116 colon): 24.4 µM
- TGI (UO-31 renal): 60.9 µM
- TGI (OVCAR-4 ovarian): 81.5 µM
- TGI (HCT-15 colon): > 100 µM
- TGI (RPMI-8226 leukemia): > 100 µM
- TGI (ACHN renal): 53.7 µM
- TGI (NCI-H23 lung): > 100 µM
- TGI (COLO 205 colon): > 100 µM
- TGI (A498 renal): 81.5 µM
- TGI (LOX IMVI melanoma): > 100 µM
- TGI (OVCAR-8 ovarian): > 100 µM
- TGI (PC-3 prostate): 50.3 µM
- TGI (BT-549 breast): 69.4 µM
- TGI (KM12 colon): > 100 µM
- TGI (SF-539 CNS): > 100 µM
- TGI (NCI-H460 lung): 62.4 µM
- TGI (MOLT-4 leukemia): 68 µM
- TGI (HS 578T breast): > 100 µM
- TGI (SN12C renal): > 100 µM
- TGI (HCC-2998 colon): 71.6 µM
- TGI (HL-60(TB) leukemia): > 100 µM
- TGI (SW-620 colon): > 100 µM
- TGI (OVCAR-5 ovarian): 74.3 µM
- TGI (HT29 colon): 33.7 µM
- TGI (DU-145 prostate): 54 µM
- TGI (A549 NSCLC): 45 µM
- TGI (M14 melanoma): > 100 µM
- TGI (SNB-19 CNS): 54.5 µM
- TGI (NCI/ADR-RES ovarian): 46 µM
- TGI (SNB-75 CNS): 87.4 µM
- TGI (IGROV1 ovarian): 80.8 µM
- TGI (NCI-H522 lung): > 100 µM
- TGI (MCF7 breast): 67.4 µM
- TGI (786-0 renal): 14.6 µM
- TGI (U251 CNS): 60.7 µM
- TGI (NCI-H226 lung): 75.5 µM
- TGI (UACC-257 melanoma): > 100 µM
- TGI (SK-MEL-2 melanoma): 99.9 µM
- TGI (SR leukemia): 67.4 µM
- TGI (SF-295 CNS): 64.5 µM
- TGI (HOP-62 NSCLC): 39.3 µM
- TGI (MDA-MB-435): > 100 µM
- TGI (RXF 393 renal): 54.9 µM
- TGI (OVCAR-3 ovarian): 40.5 µM
- TGI (MDA-MB-231 breast): > 100 µM
- TGI (K-562 leukemia): > 100 µM
- TGI (UACC-62 melanoma): > 100 µM
- TGI (MDA-N): > 100 µM
